In this assay the test system is GFP reporter. As to the kind of experiment: GFP reporter activation by chimeric GPCR-dCas9-VPR receptors in HEK293T cells. The format is cell-based, human. To be noted: sgRNA and β2-arrestin-protease; presence of ligand (LPA, SDF1, or CNO) compared to absence of ligand. The source says:
The released dCas9-VPR was then targeted by sgRNA to a target polynucleotide to alter expression levels of a GFP reporter.

B1: LPAR1-dCas9-VPR: chimeric LPAR1 GPCR fused to dCas9-VPR via TEV cleavage site (protein)
chain: MAAISTSIPVISQPQFTAMNEPQCFYNESIAFFYNRSGKHLATEWNTVSKLVMGLGITVCIFIMLANLLVMVAIYVNRRFHFPIYYLMANLAAADFFAGLAYFYLMFNTGPNTRRLTVSTWLLRQGLIDTSLTASVANLLAIAIERHITVFRMQLHTRMSNRRVVVVIVVIWTMAIVMGAIPSVGWNCICDIENCSNMAPLYSDSYLVFWAIFNLVTFVVMVVLYAHIFGYVRQRTMRMSRHSSGPRRNRDTMMSLLKTVVIVLGAFIICWTPGLVLLLLDVCCPQCDVLAYEKFFLLLAEFNSAMNPIIYSYRDKEMSATFRQILCCQRSENPTGPTEGSDRSASSLNHTILAGVHSNDHSVV
modifications: left off: small tags and cut ends
notes: chimeric LPAR1 GPCR fused to dCas9-VPR via TEV cleavage site
For B1, the “levels of GFP reporter protein” value is recorded as “increased levels of GFP reporter protein”.

For the origin of these results see patent publication US10457961B2, “Chimeric proteins and methods of regulating gene expression” (The Board of Trustees of the Leland Stanford Junior …, priority 2016, dated 2019).
